Measurements from article PMC6919601, “Identification of Plasmodium dipeptidyl aminopeptidase allosteric inhibitors by high throughput screening” (PLoS ONE, 2019).
The whole screen tested about 110,000 compounds, of which about 230 (0.21%) showed an effect of 50% or more. The list shows a part of the results.

Each compound was assayed against DPAP1 (Plasmodium falciparum, UniProt Q8IIJ9) (assay: primary screen, percent inhibition; read by cleavage of a fluorogenic dipeptide substrate; higher = more effect of the substance).
Chain of DPAP1 (Q8IIJ9 whole entry, looked up): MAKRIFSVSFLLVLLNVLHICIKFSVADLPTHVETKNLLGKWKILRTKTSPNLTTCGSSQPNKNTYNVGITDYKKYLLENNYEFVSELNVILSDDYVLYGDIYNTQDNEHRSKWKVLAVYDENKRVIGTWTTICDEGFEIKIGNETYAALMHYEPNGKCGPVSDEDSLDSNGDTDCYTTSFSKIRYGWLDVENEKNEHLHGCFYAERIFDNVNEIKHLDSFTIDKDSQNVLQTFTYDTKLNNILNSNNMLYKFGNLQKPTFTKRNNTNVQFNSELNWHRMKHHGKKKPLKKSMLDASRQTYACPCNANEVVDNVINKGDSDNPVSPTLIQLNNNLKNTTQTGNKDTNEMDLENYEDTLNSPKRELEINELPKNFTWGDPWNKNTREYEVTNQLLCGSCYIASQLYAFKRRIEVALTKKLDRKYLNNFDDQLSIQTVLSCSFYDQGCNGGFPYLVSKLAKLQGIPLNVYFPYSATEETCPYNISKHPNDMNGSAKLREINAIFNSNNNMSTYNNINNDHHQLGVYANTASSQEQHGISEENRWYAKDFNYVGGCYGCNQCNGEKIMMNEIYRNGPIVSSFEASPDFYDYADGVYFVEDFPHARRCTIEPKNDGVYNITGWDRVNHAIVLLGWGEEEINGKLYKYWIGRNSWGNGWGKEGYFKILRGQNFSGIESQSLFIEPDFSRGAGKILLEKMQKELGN
Design: species or system P. falciparum D10 trophozoite lysates; single well
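Also: 30 min substrate incubation versus DMSO and 10 µM JCP410 controls.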

SMILES | % Inhibition @ 10 uM
Cc1ccc(NC(=O)COc2ccc(Br)cc2Br)cc1 | 1.33%
N#CC1=C(SCc2ccccc2)SC(CO)NC1=O (stereo not drawn) | -1.72%
Fc1ccc(CNc2nc3ccccc3c3nc(-c4ccccc4)nn23)cc1 | -6.07%
O=[N+]([O-])c1ccc(CN2CCN(Cc3ccccc3)CC2)cc1 | 1.63%
Cc1oc(-c2ccc(Cl)cc2)nc1CSc1nncn2c1cc1occc12 | -4.99%
CC(C)OCCCNC(=O)CN1C(=O)C(c2ccccc2)Oc2cccnc21 (stereo not drawn) | -2.68%
Cc1ccc(C(=O)Nc2ccc(S(=O)(=O)N3CCC(C)CC3)cc2)cc1C | 3.17%
COc1cccc(NC(=O)c2sc3ccccc3c2Cl)c1OC | -3.46%
N#CC12C(N)=NC3(OCCO3)C1(C#N)C2c1ccc(Cl)cc1 (stereo not drawn) | -1.33%
Cc1ccc(CNC(=O)CSCc2ccccc2)cc1 | 3.05%
Cc1ccc(C(=O)NCCCNC(=O)c2ccc(C)cc2)cc1 | 3.21%
CCOC(=O)C1=CN(Cc2ccc(F)cc2)C=C(C(=O)OCC)C1c1cccc(O)c1 | -1.48%
COc1ccc(OCC(NC(=O)Cn2ncc3ccccc3c2=O)C(C)C)cc1 (stereo not drawn) | -2.84%
COc1ccc(-c2nnc3c4ccccc4c(C)nn23)cc1S(=O)(=O)NCCN1CCOCC1 | -3.64%
Cc1cn(-c2nc(-c3ccccc3)oc2-c2ccccc2)c(=O)nc1N1CCCCC1 | 4.42%
O=C(O)c1cn(C2CC2)c2c(F)c(N3CCSCC3)c(F)cc2c1=O | -5.58%
CC(C)(C)NC(=O)C1C(=O)NC2(C)CC1c1ccccc1O2 (stereo not drawn) | -7.9%
CCCCOc1ccccc1/C=c1\sc2nc(-c3ccco3)nn2c1=O | -5.51%
O=C(NCc1ccccc1Cl)C1CCC(CNc2c(N3CCCC3)c(=O)c2=O)CC1 (stereo not drawn) | 7.38%
CCc1ccc(OC(C)C(=O)N(Cc2ccco2)C2CCS(=O)(=O)C2)cc1 (stereo not drawn) | 5.29%
CC(=O)/C=C/c1cn(C)c2ccccc12 | -1.56%
COc1cccc(C2CC(c3ccc(OC(F)F)cc3)n3ncnc3N2)c1 (stereo not drawn) | 0.0842%
CCCOc1ncnc2sc3c(c12)CCCC3 | -4.69%
NC1=NC(c2ccc(Br)s2)n2c(nc3ccccc32)N1 (stereo not drawn) | -3.53%
COc1ccccc1C(=O)N1CCc2ccccc21 | 2.25%
CC1=CN(CCO)/C(=C/c2sc3ccc4ccccc4c3[n+]2CCCS(=O)(=O)O)S1 | -1.72%

SMILES | % Inhibition @ 10 uM
CC(C)(C)N(Cc1ccccc1)C(=O)c1ccco1 | 4.93%
COc1ccc(S(=O)(=O)N(C)Cc2ccccc2)cc1OC | 1.26%
O=C(CSCc1ccccc1Cl)NC1CC2CCC1C2 (stereo not drawn) | 1.82%
O=C(/C=C/c1ccccc1)OCC(=O)c1ccc(-n2nncc2-c2ccco2)cc1 | 4.51%
COc1ccc(CCN2C(=O)NC(NS(=O)(=O)c3ccccc3)(C(F)(F)F)C2=O)cc1OC (stereo not drawn) | -1.52%
CCN(CC)c1ccc(C2C3=C(O)CC(c4ccco4)CC3=Nc3ccccc3N2C(C)=O)cc1 (stereo not drawn) | 4.08%
c1ccc(-c2nnn(C34CC5CC(CC(C5)C3)C4)n2)cc1 | -0.546%
O=C(O)C1CC=CCC1C(=O)Nc1ccccc1C(=O)N1CCN(c2ccc(Cl)cc2)CC1 (stereo not drawn) | -3.43%
Nc1c(C(=O)Nc2ccc(Br)cn2)sc2nc3c(cc12)CCCCCC3 | -2.14%
Nc1ncnc2c1ncn2C1OC2COP(=O)(O)OC2C1O (stereo not drawn) | -6.78%
Cc1ccccc1OCCCn1c(CO)nc2ccccc21 | 2.69%
Cn1c2c(c(=O)[nH]c1=O)C(c1ccc(OCc3ccccc3)cc1)C1=C(O)c3ccccc3C1=N2 (stereo not drawn) | 1.16%
Cc1ccsc1CCNC(=O)C1CCC(CNc2c(N3CCC(C)CC3)c(=O)c2=O)CC1 (stereo not drawn) | -0.447%
C/C(=N\OCc1nc2c3c4c(sc3ncn2n1)CCCCC4)c1ccc(Br)cc1 | -1.6%
CCC(C)NC(=O)c1cnn2c(C(F)(F)F)cc(-c3cccs3)nc12 (stereo not drawn) | -4.06%
COc1ccccc1CNc1ncnc2c1nc1n2CCCCC1 | -0.431%
Cn1c2ccccc2c2nc3cc4ccccc4cc3nc21 | -2.54%
CCOCCCNC(=O)CCC(=O)n1ncc2ccccc21 | 5.23%
Cn1c(S)nc2c(=O)oc3ccccc3c21 | 56.8%
Cc1c2cnn(CC(=O)NCCN(C)C)c(=O)c2c(C)n1Cc1cccc(Cl)c1 | -0.447%
CCOC(=O)C1=C(C)OC(N)=C(C#N)C1c1cc2c(cc1[N+](=O)[O-])OCO2 (stereo not drawn) | 1.11%
CC(C)c1cccc(C(C)C)c1OCCN1CCOCC1 | -0.0953%
COCCCN1C(=S)NC2CC1(C)Oc1c(Cl)cccc12 (stereo not drawn) | -11.8%
Cc1ccc(CN(Cc2ccco2)C(=O)C(C)Oc2cc(C)c(Cl)c(C)c2)o1 (stereo not drawn) | 5.43%
COc1cc(/C=C2/NC(=O)N(CC(=O)Nc3cccc(C)c3)C2=O)cc(Br)c1O | -17%
